About 260 (0.074%) of roughly 350,000 compounds were called active. Inconclusive results, whose numbers are uncertain, are shown with a selection of clear calls. Calls come from the whole dose curve; as a rule, active = well fitted inhibition curve with a large enough effect; inconclusive = small, poorly fitted or top-dose-only effect; inactive = no such curve, though single readings can be large or run the other way. Potencies beside an inconclusive call are fits to weak or partial responses and may not hold up.
target: Ferritin light chain (Equus caballus) (UniProt P02791); test: qHTS Assay for Identification of Novel General Anesthetics; conditions: apoferritin/1-aminoanthracene competitive binding, fluorescence; series mostly up to 77.5 µM; note: nearly all actives have a fitted effect of over 20% in size
Procedure, shortened: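 Concentration-response curves derived by four-parameter Hill fitting of normalized fluorescence, where compounds displaced 1-AMA from 10 uM horse apoferritin following a brief 10 min room-temperature incubation; propofol titration acted as positive control.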
Potency is the fitted concentration of half-maximal effect; tags give direction and shape of the fitted curve.

Sequence of UniProt P02791 (P02791 whole entry, looked up): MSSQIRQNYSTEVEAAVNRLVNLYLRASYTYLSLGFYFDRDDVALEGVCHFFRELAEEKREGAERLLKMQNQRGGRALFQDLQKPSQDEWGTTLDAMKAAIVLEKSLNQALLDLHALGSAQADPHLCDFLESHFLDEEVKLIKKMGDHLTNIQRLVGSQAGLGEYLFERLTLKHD

Compound	Potency
COc1ccc(NC(=O)CN2CCN(CC(=O)Nc3ccc(F)cc3F)CC2)cc1	inactive
Cc1nnc(N/N=C/c2cc([N+](=O)[O-])c(N3CCC(C)CC3)cc2N2CCC(C)CC2)n1N	inconclusive: 11.2 µM [inhibitor, partial curve]
O=S1(=O)NC(CC2=CCCCC2)C2CCCCC2O1 (configuration not stated)	inconclusive: 28.2 µM [inhibitor, partial curve]
CCc1ccc(C(=O)c2cn(CC(=O)Nc3ccc(Cl)cc3)c3cc4c(cc3c2=O)OCO4)cc1	inconclusive: 5.01 µM [inhibitor, full curve, poor fit]
CCC(Cn1nnc2ccccc2c1=O)NC(=O)Nc1cc(C)cc(C)c1 (configuration not stated)	inconclusive: 56.2 µM [inhibitor, single point]
Cc1cc(C)n(-c2ccc(C(=O)Nc3cccc(S(=O)(=O)N(C)C)c3)cc2)n1	inconclusive: 50.1 µM [inhibitor, single point]
CC(C)c1nn2c(=O)cc(COC(=O)c3cccc(NC(=O)COc4ccc(F)cc4)c3)nc2s1	inactive
O=C(CSc1nnc(-c2cccs2)o1)OC1CCCCC1	inconclusive: 25.1 µM [inhibitor, partial curve]
CCN(CC)c1ccc2nc3ccccc3[n+](CC)c2c1	inconclusive: 31.6 µM [inhibitor, partial curve]
O=C(CSCc1nc2c(nnn2Cc2ccc(F)cc2)c(=O)[nH]1)Nc1cccc(C(F)(F)F)c1	inconclusive: 20 µM [inhibitor, partial curve]
CCC1=NN2C(=N)/C(=C\c3cccn3-c3c(C)cccc3C)C(=O)N=C2S1	inconclusive: 10 µM [inhibitor, partial curve]
COc1ccc(C2C(C(=O)Nc3ccccc3)=C(C)Nc3c(C(=O)Nc4ccccc4)cnn32)cc1 (configuration not stated)	inactive
C=C(C)CN(CC)c1nc(N)c(C#N)c(CC#N)c1C#N	inconclusive: 15.8 µM [inhibitor, partial curve]
S=C(NCc1ccc(Cl)cc1)NC12CC3CC(CC(C3)C1)C2	inconclusive: 3.16 µM [inhibitor, full curve, poor fit]
Oc1[nH]c2ccc(Br)cc2c1N=NC(=S)N1CCOCC1	inactive
CCc1ccc(CNC(=O)c2cnc3sc(N4CCCC4)nn3c2=O)cc1	inactive
Cc1ccc(CNC(=O)C(=O)NCC2OCCN2S(=O)(=O)c2cccs2)cc1 (configuration not stated)	inconclusive: 50.1 µM [inhibitor, single point]
CCc1c(C2(O)CCCCC2)[nH]c2ccc(C(F)(F)F)cc12	inconclusive: 44.7 µM [inhibitor, single point]
Cc1ccc(S(=O)(=O)NNC(=O)c2cc3cc4ccccc4nc3s2)cc1	inconclusive: 20 µM [inhibitor, partial curve]
COC(=O)COc1ccc(S(=O)(=O)NCCC2=CCCCC2)cc1Cl	inconclusive: 3.98 µM [inhibitor, full curve]
Cc1ccc(S(=O)(=O)Nc2cc(Cl)c(O)cc2C)cc1	inconclusive: 35.5 µM [inhibitor, partial curve]

Compound	Potency
COCC(=O)Nc1cccc2ccccc12	inactive
CC(=O)c1ccc(Nc2cc(C)nc3c(C)cccc23)cc1	inconclusive: 39.8 µM [inhibitor, single point]
Cc1ccc(C)c(NS(=O)(=O)c2c(C)nn(C)c2C)c1	inconclusive: 25.1 µM [inhibitor, single point]
COc1cccc(NC(=O)CNC(=O)c2ccccc2)c1	inactive
CCCCOc1ccc(-c2cn3ccccc3n2)cc1[N+](=O)[O-]	inconclusive: 31.6 µM [inhibitor, single point]
O=C1COc2ccc(C(=O)COC(=O)C3CC(O)CN3S(=O)(=O)c3ccc(Cl)cc3)cc2N1 (configuration not stated)	inconclusive: 25.1 µM [inhibitor, partial curve]
COc1ccccc1-n1cc2c([N+](=O)[O-])cc([N+](=O)[O-])cc2n1	inactive
COc1ccccc1NC(=O)CCC(=O)OCc1ccc(Br)cc1	inconclusive: 22.4 µM [inhibitor, partial curve]
Cc1cc(C(C)(C)C)cc(C)c1N	inconclusive: 50.1 µM [inhibitor, single point]
O=C(N/N=C/c1ccccn1)NC12CC3CC(CC(C3)C1)C2	inconclusive: 50.1 µM [inhibitor, single point]
CCOC(=O)/C(=N/Nc1ccccc1)N1CCCc2ccccc21	inactive
Cc1nn(-c2c(Cl)cc(Cl)cc2Cl)c(=O)c2ccccc12	inconclusive: 28.2 µM [inhibitor, partial curve, poor fit]
CCOC(=O)c1sc2cccc(F)c2c1S(=O)(=O)NCc1ccccc1Cl	inconclusive: 22.4 µM [inhibitor, partial curve]
O=C(NN=C1c2ccccc2-c2ccccc21)c1ccccc1Br	inconclusive: 10 µM [inhibitor, partial curve]
O=C(CS(=O)(=O)c1cccc2nsnc12)N1CCN(c2cccc(Cl)c2)CC1	inconclusive: 14.1 µM [inhibitor, partial curve]
CCCN1CCN(c2ncnc3sc(C(=O)Nc4ccc(C(C)C)cc4)c(C)c23)CC1	inconclusive: 50.1 µM [inhibitor, single point]
O=C(Nc1ccc(Cl)c(Cl)c1)N1CCCCCC1	inconclusive: 3.55 µM [inhibitor, full curve]
CN(C)S(=O)(=O)c1ccc(C(=O)OCC(=O)c2ccc(OC(F)F)cc2OC(F)F)cc1	inconclusive: 39.8 µM [inhibitor, partial curve]
COc1cccc(-c2csc(NC(=O)Oc3ccccc3)n2)c1	inconclusive: 39.8 µM [inhibitor, single point]
CN(CCC#N)C(=O)CSc1ncnc2sc(-c3ccccc3)cc12	inconclusive: 50.1 µM [inhibitor, single point]
CCC(C)NC(=O)CCCN1C(=O)CCn2nc(-c3cccn3C)cc21 (configuration not stated)	inconclusive: 11.2 µM [inhibitor, single point]
